Results: PubChem BioAssay AID540267 (National Center for Advancing Translational Sciences (NCATS), 2011)
Among all 340,000 compounds or so, about 530 (0.16%) were called active. The inconclusive results got no clear call from the source; some entries with a clear call stand among them for comparison. Rule as the data show it: active = activity change below about -80%; inconclusive = between about -30% and that limit; inactive = weaker than that.

Assay: Small Molecules that selectively kill Giardia lamblia: qHTS;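 also: parasites exposed to compound for two days anaerobically before the ATP read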
Settings: Giardia lamblia trophozoite viability; at 7.66 µM; stronger effect = lower value
Summary of the method: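 Media and compound were dispensed first, then trophozoites at 100 cells/well; plates sat 48 hrs at 37 deg C without oxygen before ATP luminescence reagent was added and read after 15-30 min at room temperature.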
% is scaled to controls: 0 for no effect and ±100 for the full control effect.

| SMILES | activity change |
| --- | --- |
| O=C(C[C@H]1C/C=C\CC[C@H](Cc2ccc(F)cc2)C(=O)OC[C@@H]2CCCN2C1=O)N[C@H](CO)Cc1ccccc1 | inactive: -2.61% |
| CS(=O)(=O)N(CC(=O)N1CCCC1)c1cccc(F)c1 | inactive: 16.1% |
| CCCNc1nc(-c2cc(C(=O)Nc3ccccc3)on2)cc(C(C)C)n1 | inconclusive: -37.4% [inhibitor] |
| Cc1ccc([C@@H]2CC=C(C(=O)O)[C@H](c3cccc(Cl)c3)N2S(=O)(=O)c2ccc(C)cc2)cc1 | inconclusive: -53% [inhibitor] |
| O=C1S/C(=C\c2ccc(O)c([N+](=O)[O-])c2)C(=O)N1Cc1cccc([N+](=O)[O-])c1 | active: -81.5% |
| Cc1c(-c2cccc(Cl)c2)nc2ccccc2c1C(=O)OCC(=O)N(C)C1CCS(=O)(=O)C1 (centres undefined) | inconclusive: -33.7% [inhibitor] |
| COc1ccc(CN2C=C3C(=O)C(C)(OC(=O)C4CCCC4)C(=O)C=C3C=C2c2ccsc2)cc1 (centres undefined) | inconclusive: -33.2% [inhibitor] |
| CC(=O)N1CCN(c2ccc(NC(=O)c3ccc([N+](=O)[O-])o3)cc2Cl)CC1 | active: -80.6% |
| Cc1cccc(C)c1NC(=O)CSc1nc(COc2ccccc2)nc2ccccc12 | inactive: 16.4% |
| C=C1[C@@H](O)[C@H](CC(C)C)N(Cc2ccccc2Br)S1(=O)=O | inconclusive: -40.1% [inhibitor] |
| COc1ccc2c(c1OC)C(=O)N1N=C(c3ccc(-c4ccccc4)cc3)CC21 (centres undefined) | inconclusive: -38.5% [inhibitor] |
| O=C(c1ccc([N+](=O)[O-])o1)N1CCc2ccccc2C1 | active: -86% |
| Cc1cccc(OCCSc2nc3ccccc3n2CCC(=O)O)c1 | inconclusive: -33.1% [inhibitor] |
| CNC(=S)N1CCN(c2c(F)cc3c(=O)c(C(=O)O)cn(C4CC4)c3c2OC)CC1C (centres undefined) | inconclusive: -33.7% [inhibitor] |
| O=C(c1cccnc1)N1CCN(C(=O)c2cccs2)CC1 | inconclusive: -33.9% [inhibitor] |
| Cc1cc(NC(=O)c2ccc(C(C)(C)C)cc2)no1 | inconclusive: -46.5% [inhibitor] |
| CCOC(=O)c1c(N)sc(C(=O)Nc2ccc3c(c2)OCO3)c1C | inconclusive: -71.4% [inhibitor] |
| O=C(CC1SC(=NCC2CCCO2)NC1=O)Nc1cccc2ccccc12 (centres undefined) | inconclusive: -34% [inhibitor] |
| O=C(COC(=O)Cc1ccsc1)NNC(=O)c1ccccc1 | inconclusive: -39.5% [inhibitor] |
| Cc1cc(NS(=O)(=O)c2ccc(NC(=O)COc3cc(C)c(Cl)c(C)c3)cc2)no1 | inconclusive: -37.2% [inhibitor] |
| COc1ccc(-c2nnn(CC(=O)Nc3ccc4c(c3)OCCO4)n2)cc1OC | inconclusive: -32.5% [inhibitor] |
| Cc1ccnc(NC(=O)c2ccc(N3C(=O)CCC3=O)cc2)c1 | inconclusive: -40.5% [inhibitor] |
| Cc1ccc(C)c(Cc2c(C)nc(C)[nH]c2=O)c1 | inactive: 3.6% |
| O=C(Cn1nc(-c2ccccc2)c2ccccc2c1=O)Nc1ccc(O)cc1 | inactive: -26.1% |
| Cc1cc(C(=O)N2CCc3ccccc32)n(-c2ccccc2)n1 | inconclusive: -39.8% [inhibitor] |
| CCCOc1ccc(/C=N/NC(=O)CN(c2ccc(OCC)cc2)S(C)(=O)=O)cc1 | inconclusive: -31.8% [inhibitor] |
| COc1c(-c2ccc(O)cc2)oc2cc(O)cc(O)c2c1=O | inconclusive: -33% [inhibitor] |

| SMILES | activity change |
| --- | --- |
| NC(=O)COC(=O)c1ccccc1OCc1ccc(Cl)cc1 | inconclusive: -32.3% [inhibitor] |
| COC(=O)c1ccc2[nH]c3c(c2c1)CC(C)CC3 (centres undefined) | inconclusive: -35.2% [inhibitor] |
| Cn1cccc1CC(=O)N/N=C/c1cccc2ccccc12 | inactive: 9.28% |
| CCc1c(O)c(/C(C)=N\O)c(=O)n(-c2ccccc2)c1-c1ccccc1 | inactive: -6.94% |
| CCCNS(=O)(=O)c1ccc(CCC(=O)Nc2ccc3c(c2)OCO3)cc1 | inconclusive: -33% [inhibitor] |
| O=C(N[C@@H](Cc1ccccc1)C(=O)N1CCN(S(=O)(=O)c2ccccc2F)CC1)c1ccco1 | inconclusive: -30.6% [inhibitor] |
| COc1cccc(NC(=O)Nc2ccncc2)c1 | inactive: 0.581% |
| CC(C)CCCN1C(Nc2ccccc2)=NC[C@@H]1C | inconclusive: -30.3% [inhibitor] |
| Cc1ccc(Cl)cc1N1CCN(S(=O)(=O)c2c(C(=O)N3CCOCC3)c(C)n(C)c2C)CC1 | inactive: -3.24% |
| O=C(O)CCN1C(=O)/C(=C\c2ccncc2)SC1=S | inconclusive: -32.5% [inhibitor] |
| Cn1nc(C(=O)N2CCCCC2)c2c1-c1ccccc1S(=O)(=O)C2 | inconclusive: -31.5% [inhibitor] |
| Cc1ccc(NC(=O)c2cc(=O)c3ccccc3o2)cc1S(=O)(=O)N1CCOCC1 | inactive: 0.201% |
| O=C(N/N=C/c1ccc([N+](=O)[O-])s1)c1ccccc1 | active: -89.8% |
| Cn1c(NC(=O)CCC2CCCCC2)cc(=O)n(C)c1=O | inconclusive: -32.8% [inhibitor] |
| C=CCn1c(C)cc(-c2csc(N)n2)c1C | inactive: 14.3% |
| O=C(O)C(=O)/C(=C\c1ccccc1)c1ccc2ccccc2n1 | inconclusive: -36.5% [inhibitor] |
| COc1ccc(C2=NCCn3c2c2ccc(C(F)(F)F)cc2[n+]3[O-])cc1 | active: -99.1% |
| Cc1ccccc1C(=O)N/N=C/c1ccc([N+](=O)[O-])s1 | inconclusive: -72% [inhibitor] |
| Cc1cc(C)nc(NC(N)=NC(C)c2ccccc2)n1 (centres undefined) | inactive: 23.5% |
| c1ccc(SCc2nc3ccccc3[nH]2)cc1 | inactive: 3.29% |
| Cc1noc(/C=C/c2cccnc2)c1[N+](=O)[O-] | inconclusive: -51.4% [inhibitor] |
| COc1ccc(Br)cc1/C=C/C(=O)NC(=S)Nc1ccc(Cl)c(C(=O)O)c1 | inconclusive: -31% [inhibitor] |
| Cc1cc(C(=O)Nc2nc(C)c(C(=O)N(C)C)s2)ccc1[N+](=O)[O-] | inconclusive: -37.8% [inhibitor] |
| CC(=O)Nc1ccc(NC(=O)CSc2nnc3ccc(-c4cccnc4)nn23)cc1 | inconclusive: -31.6% [inhibitor] |
| CN(CCC#N)c1ccc(/C=C(\C#N)c2ccccn2)cc1 | inconclusive: -42.7% [inhibitor] |
| Cc1csc(NC(=O)c2ccncc2)n1 | inactive: 33.7% |
| CCCCC(=O)Nc1ncc([N+](=O)[O-])s1 | active: -90.3% |

| SMILES | activity change |
| --- | --- |
| NC(=O)N/N=C/c1ccc([N+](=O)[O-])o1 | inconclusive: -31.8% [inhibitor] |
| Cc1cc(NC(=O)Cn2nc([N+](=O)[O-])c(Br)c2C)no1 | inconclusive: -42.6% [inhibitor] |
| O=C1C2C3C=CC(CC3)C2C(=O)N1c1ccc(Br)cc1[N+](=O)[O-] (centres undefined) | inconclusive: -38.1% [inhibitor] |
| Cc1ccc(C(=O)c2c3ccc([N+](=O)[O-])cc3[n+]([O-])n2CCCC(N)=O)cc1 | inconclusive: -55.7% [inhibitor] |
| CCc1nc(-c2ccccc2)c2ccccn12 | inactive: -7.2% |
| Cc1c(C)c2c(OCC(=O)NCc3cccnc3)cc3c(c2oc1=O)CCC(C)(C)O3 | inconclusive: -32.7% [inhibitor] |
| CN(C)C(=S)NC(=O)c1cccc(Cl)c1 | inconclusive: -31.7% [inhibitor] |
| COc1ccc(NC(=O)CCCc2nnc3n(C)c(=O)c4sccc4n23)cc1 | inconclusive: -33.4% [inhibitor] |
| COc1cc(SC)ccc1C(=O)Nc1ccc(Br)cn1 | inconclusive: -73.8% [inhibitor] |
| CC(=O)Nc1ccc(/C=N/NC(=O)CCN2CCN(c3ccccc3)CC2)cc1 | inactive: 11.2% |
| CC(=O)Nc1ccc(/C=C/c2ccc3c([N+](=O)[O-])cccc3n2)cc1 | inconclusive: -40.8% [inhibitor] |
| Cc1ccc(OCC(=O)N/N=C/c2ccc([N+](=O)[O-])o2)cc1 | active: -101% |
| CCOC(=O)C1CCCN(S(=O)(=O)c2ccc(NC(C)=O)cc2)C1 (centres undefined) | inconclusive: -30.4% [inhibitor] |
| Cc1nc(C(C)N(C)Cc2nc(-c3ccc4c(c3)OCO4)no2)c(C)s1 (centres undefined) | inactive: 25.5% |
| CCO[C@@H]1OC(C(=O)NCc2nc3ccccc3[nH]2)=C[C@H](C(C)(C)C)[C@H]1CCCO | inactive: -15.2% |
| CC(=O)Nc1ccc(NC(=O)c2sc(-c3ccccc3)nc2C)cc1 | inconclusive: -42.9% [inhibitor] |
| CN(Cc1ccc(Cl)s1)C(=O)CSc1nnc(C2CC2)n1C1CC1 | inconclusive: -36.5% [inhibitor] |
| COc1cc(SC)ccc1C(=O)Nc1nccs1 | inconclusive: -48.6% [inhibitor] |
| CCOC(=O)c1nc(C(=O)NCc2ccc(C)cc2)nc2ccccc12 | inconclusive: -50.8% [inhibitor] |
| Cc1ccc(NC(=S)Nc2ccc3[nH]c(=O)[nH]c3c2)cc1C | inconclusive: -43.6% [inhibitor] |
| Cc1ccc2c(Cl)c(C)c(N3CCOCC3)nc2n1 | inconclusive: -33.7% [inhibitor] |
| CCc1nc(NCCO)c(C#N)c2c1CSC(C)(C)C2 | inactive: 41.6% |
| COc1ccccc1OCC(=O)Nc1ccc(CSc2ccccc2)cc1C | inactive: -8.17% |
| O=c1[nH]c2ccc(S(=O)(=O)N3CCN(C4CCCCC4)CC3)cc2[nH]c1=O | inactive: -8.36% |
| Cc1nnc(N/N=C/c2c[nH]c3ccccc23)[nH]c1=O | inactive: 14% |
